# Hit rate of the full screen: of about 44,000 compounds, about 340 (0.77%) were called active. Not shown: some 5% with an inconclusive outcome. The call rests on the fitted dose curve; in most records, active means well fitted inhibition curve with a large enough effect; inconclusive means small, poorly fitted or top-dose-only effect; inactive means flat fitted curve, though single readings scatter. The list shows a part of the results.
# Experiment: Acumen qHTS Assay for Inhibitors of the mTORC1 Signaling Pathway in MEF (Tsc2-/-, p53-/-) Cells: Sytravon; further: nearly all actives have a fitted effect of over 50% in size
# Conditions: phospho-rpS6 immunofluorescence/PI, 24 h; series mostly up to 38.3 µM; activity change, negative = inhibition: at the top concentration
# Summary of the method: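 Readout is phospho-S6 Alexa 488 signal normalized to PI per well, reported as % active cells with thresholds set from rapamycin (7.5 nM) and DMSO controls. Cells: Tsc2-/-, p53-/- MEFs, 24 hrs compound at 37 C; PI cell number serves as viability.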
row,SMILES,"activity change, negative = inhibition"
1,CCS(=O)(=O)N1CCc2cc(C(=O)Nc3cccc(NC(C)=O)c3)ccc21,inactive: -5.42%
2,Cc1ccc(C2c3[nH]c4ccccc4c3CCN2C(=O)CSc2ccccc2)cc1 (stereo unspecified),inactive: -5.91%
3,Cn1c(=O)oc2cc(S(=O)(=O)N3CCCC(C(=O)N4CCN(c5ccc(F)cc5)CC4)C3)ccc21 (stereo unspecified),inactive: -0.0585%
4,CC(Oc1ccc(Br)cc1)C(=O)N(Cc1nc(-c2ccccc2)no1)C(C)C (stereo unspecified),inactive: -19.5%
5,O=C(NCCCN1CCN(c2ccccc2)CC1)c1ccc2nc(CCc3ccccc3)oc2c1,inactive: 0.0904%
6,Cc1ccccc1OCC(=O)Nc1nnc(S(=O)(=O)N2CCCCCC2)s1,inactive: -10.2%
7,CCc1nn2c(=O)cc(COC(=O)c3ccccc3NC(=O)c3ccc(C(C)(C)C)cc3)nc2s1,inactive: 3.95%
8,CSc1cccc(NC(=O)C2CCCN(S(=O)(=O)c3ccc4c(c3)CCCN4C(C)=O)C2)c1 (stereo unspecified),inactive: -5.53%
9,Cc1ccc(-n2c(-c3cccc(C)c3)nc3c(cnn3-c3ccccc3)c2=O)cc1,inactive: 9.46%
10,Cc1ccc2c(c1)c1c(c(=O)n(-c3cccc(Cl)c3)c(=O)n1CC(=O)Nc1c(C)cccc1C)n2C,inactive: 1.97%
11,CCOC(=O)c1ccccc1NC(=O)CSc1nc2cn(CC)nc2c(=O)n1Cc1ccc(Cl)cc1,inactive: 0.643%
12,Cc1ccc(CN2CCSc3ccc(C(=O)N4CCN(c5ccccc5)CC4)cc32)cc1,inactive: 5.43%
13,O=C(CC1N=C2c3ccccc3N=C(SCc3ccc(Cl)cc3)N2C1=O)NCc1cccs1 (stereo unspecified),inactive: -1.98%
14,COc1ccc(N2CCN(C(=O)C3CCN(S(=O)(=O)c4cccs4)CC3)CC2)cc1,inactive: -14.4%
15,O=c1c2cc3c(cc2n(Cc2ccc(Cl)cc2)c(=O)n1Cc1nc(-c2ccccc2)no1)OCO3,inactive: 0.86%
16,Cc1ccc(-n2c(Cc3ccccc3)nnc2SCc2nc(-c3cccs3)no2)cc1,inactive: -1.66%
17,O=C(Nc1cccc(Cl)c1)c1cnc2sc(N3CCCC3)nn2c1=O,inactive: -12.8%
18,CN1C(=O)Cc2cc(S(=O)(=O)N3CCN(c4ccccc4F)CC3)ccc21,inactive: 2.88%
19,Cc1ccc(-c2noc(C(C)NS(=O)(=O)c3ccc(C)cc3)n2)cc1 (stereo unspecified),inactive: -13.4%
20,COc1ccc(CNC(=O)Cc2c(C)c3cc4c(C)coc4c(C)c3oc2=O)cc1,inactive: 1.45%
21,Cc1ccc(C)c(CN2CCCN(Cc3ccc(F)cc3)S2(=O)=O)c1,inactive: -3.5%
22,Cc1nc(-n2nc(C)c(Cc3ccccc3Cl)c2C)sc1C(=O)Nc1ccccc1F,inactive: -3.33%
23,CC(=O)c1ccc(S(=O)(=O)N2CCn3cccc3C2c2ccc(C)cc2)cc1 (stereo unspecified),inactive: 0.303%
24,CCOC(=O)Cn1c(=O)n(CC2CCCO2)c2nc(-c3ccc(C)cc3)nc(C(N)=O)c21 (stereo unspecified),inactive: 1.85%

row,SMILES,"activity change, negative = inhibition"
1,CC(C)c1ccc(C2=CC(c3ccc(C(C)C)cc3)n3nnnc3N2)cc1 (stereo unspecified),inactive: -0.431%
2,Cc1ccc2nc3c(cc(C(=O)NCC4CCCO4)c(=N)n3C(C)C)c(=O)n2c1 (stereo unspecified),inactive: -5.24%
3,COc1ccccc1/C=C/c1nc2ccccc2n1C(C)C,inactive: -19.2%
4,COc1ccccc1NC(=O)C(=O)NCC(c1ccc2c(c1)OCO2)N1CCOCC1 (stereo unspecified),inactive: -8.48%
5,COc1ccc(Cl)cc1NC(=O)Cc1ccc(NC(=O)N2CCCCc3ccccc32)cc1,inactive: 0.123%
6,CCc1nnc(NC(=O)CSc2nccn2-c2ccc(OC)cc2)s1,inactive: -18.8%
7,CCn1c(C)c(C2N3CC4(C)CN2CC(C)(C3)C4=O)c2ccccc21 (stereo unspecified),inactive: 0.135%
8,CSc1ccc(CCNC(=O)c2cnc3c(C)cccn3c2=O)cc1,inactive: 1.92%
9,Cc1nc(C)c(-c2ccc(SCC(=O)Nc3ccc(Br)cc3)nn2)s1,inactive: -4.37%
10,CC(=O)c1cccc(-n2c(=O)c3c4c(sc3n(CC(=O)c3ccccc3)c2=O)CN(C(C)=O)CC4)c1,inactive: 2.78%
11,Cc1ccc(C)c(CN2C(=O)c3ccccc3S(=O)(=O)c3ccc(C(=O)N(C)C4CCCCC4)cc32)c1,inactive: -0.434%
12,CC(=O)c1cc2c(cc1N/C(=N/S(=O)(=O)c1ccc(Cl)cc1)c1ccc(F)cc1)OCO2,inactive: 2.71%
13,COc1cc(C(=O)Oc2c(Sc3ccccc3)c(C)nn2-c2ccccc2)cc(OC)c1OC,inactive: -2.21%
14,CCc1ccccc1NC(=O)Nc1c[nH]c(=O)[nH]c1=O,inactive: -5.39%
15,Cc1ccc(C)c(N2CCN(C(=O)c3ccc(NC(=O)c4nsc5ccccc45)cc3)CC2)c1,inactive: 0%
16,Cc1ccc(CNC(=O)CCCCCn2c(=O)[nH]c3ccccc3c2=O)cc1,inactive: 0.155%
17,Cc1nn(-c2ccccc2)c(OC(=O)C(C)C)c1Sc1ccc(Cl)cc1,inactive: 6.4%
18,Cc1ccc(/C=C/c2onc(C)c2S(=O)(=O)N2CCC(C(=O)Nc3ccc(C)c(N(C)C)c3)CC2)cc1,inactive: -1.33%
19,CC1CCCN(CCCNC(=O)c2ccc3c(c2)N(Cc2ccccc2F)C(=O)c2ccccc2S3(=O)=O)C1 (stereo unspecified),inactive: 0.661%
20,Cc1ccccc1-c1nc(CN2CCC(C(=O)NCc3ccccc3Cl)CC2)c(C)o1,inactive: -9.97%
21,CCOc1ccc(N2CC(NC(=O)CCc3ccccc3)CC2=O)cc1 (stereo unspecified),inactive: -10.8%
22,CC(C)(C)c1ccc(NC(=O)C2CCCN(c3cnccn3)C2)cc1 (stereo unspecified),inactive: -10.4%
23,Cc1cc(C)c(NC(=O)Cn2c(=O)n(CC(=O)NCc3ccccc3Cl)c(=O)c3sccc32)c(C)c1,inactive: 3.58%
24,CC(=O)c1cc2c(cc1N/C(=N/S(=O)(=O)c1ccc(C)cc1)c1ccccc1)OCO2,inactive: -3%

row,SMILES,"activity change, negative = inhibition"
1,COC(=O)c1ccc(NC(=O)CCS(=O)(=O)c2ccc(Br)cc2)cc1,inactive: -2.21%
2,CCOC(=O)c1c(NC(=O)/C=C/c2ccc(OCC)cc2)sc(C)c1C,inactive: 15.3%
3,COC(=O)C(NC(=O)CC(C)C)(Nc1nc2c(s1)CCCC2)C(F)(F)F (stereo unspecified),inactive: -22.5%
4,CCCCOc1ccc(C(=O)NCCS(=O)(=O)N2CCN(c3ccc(F)cc3)CC2)cc1,inactive: 4.87%
5,CCc1cnc2c(c1SCC(=O)N1CCCCC1)c(=O)n(C)c(=O)n2C,inactive: -5.83%
6,CCC(=O)N1CCc2cc(Br)cc(S(=O)(=O)N3CCC(C(=O)Nc4ccc(OC)cc4)CC3)c21,inactive: -1.35%
7,COc1ccc(C(=O)NC2(C(F)(F)F)C(=O)NC(C)=C2C#N)cc1OC (stereo unspecified),inactive: 0.356%
8,COc1ccc(-c2cc(C(=O)O)n(Cc3ccccc3)n2)cc1,inactive: -11.7%
9,O=C(CSc1nc2ccccc2nc1Cc1ccccc1)NCc1ccccc1Cl,inactive: -15.2%
10,CCCCN(CC)CCCNC(=O)c1sc2nc(C)cc(C)c2c1-n1cccc1,inactive: -35.7%
11,CCc1ccc(NC(=O)c2ccc3c(O)c(S(=O)(=O)c4ccc(Cl)cc4)c(=O)[nH]c3c2)cc1,inactive: -2.95%
12,Cc1cccc(OC(C)C(=O)Nc2ncn[nH]2)c1 (stereo unspecified),inactive: -2.13%
13,COc1ccc(CN(C(=O)COc2ccccc2OC)C2CCS(=O)(=O)C2)cc1 (stereo unspecified),inactive: -3.75%
14,Cc1ccc(S(=O)(=O)N(CC(O)Cn2c3ccccc3c3ccccc32)c2cccc(C(N)=O)c2)cc1 (stereo unspecified),inactive: -3.66%
15,Cc1ccc(C)c(NC(=O)CN2C(=O)CCc3ccccc32)c1,inactive: -26.1%
16,CCN(CC)c1cc(C)c2cc(NC(=O)c3cccc(OC)c3)ccc2n1,inactive: -21.5%
17,Cc1cccc2nc(-c3ccco3)c(Nc3ccc4c(c3)OCO4)n12,inactive: 2.13%
18,CCOC(=O)C1CCCN(S(=O)(=O)c2ccc(F)c(C(=O)Nc3ccc(F)c(F)c3)c2)C1 (stereo unspecified),inactive: -22%
19,Cc1ccccc1CNC(=O)c1cnc2sc(N3CCOCC3)nn2c1=O,inactive: -8.3%
20,Cc1ccc(NC(=O)CN(C)S(=O)(=O)c2ccc3c(c2)n(C)c(=O)c(=O)n3C)cc1C,inactive: -13.1%
21,Cc1ccc(-c2nc3c4ccccc4n(CC(=O)N4CCN(c5ccccc5F)CC4)c(=O)n3n2)cc1,inactive: 0.115%
22,Cc1ccc(-n2nnnc2CNC(=O)C(C)(C)C)cc1C,inactive: -12.7%
23,Cc1nc(SC(C)C(=O)Nc2ccccc2C)cc(-c2ccccc2)n1 (stereo unspecified),inactive: -0.685%
24,COc1ccc(CNC(=O)c2cc(-c3ccc(OC)cc3)on2)cc1,inactive: 4.54%

row,SMILES,"activity change, negative = inhibition"
1,CCOc1ccc(CCNC(=O)Cn2nc(C)n3c(cc4occc43)c2=O)cc1OCC,inactive: -6.32%
2,Cc1ccccc1C(=O)c1cccn1CC(=O)NCc1ccccc1,inactive: 1.4%
3,CCn1c2ccccc2c2nnc(SCC(=O)O)nc21,inactive: -2.06%
4,Cc1ccc(C)c(OCCn2c(-c3ccc(Cl)cc3)nc3ccccc3c2=O)c1C,inactive: 5.97%
5,COc1ccc(CNC(=O)CSc2nc(-c3ccc(OC)cc3)cc(C(F)(F)F)n2)cc1,inactive: -2.81%
6,CC(C)Oc1ccc(CNC(=O)c2cc3ccccn3n2)cc1,inactive: -9.65%
7,CC(=O)Nc1ccc(S(=O)(=O)N2CCC(n3c(C(F)(F)F)nc4cccnc43)CC2)cc1,inactive: -0.998%
8,COc1cccc(-c2cc(C(=O)Nc3cc(Cl)ccc3O)on2)c1,inactive: 0%
9,Cc1ccccc1-n1c(SCc2ccc(Cl)cc2)nc2[nH]ncc2c1=O,inactive: -2.19%
10,COc1cccc(N2CCN(C(=O)CCc3c(C)nc4c(c3C)c(=O)n(C)c(=O)n4C)CC2)c1,inactive: -6.86%
11,CCC(C)NC(=O)c1ccc2c(c1)N(Cc1ccccc1)C(=O)c1ccccc1S2 (stereo unspecified),inactive: 8.33%
12,CCN(CC)c1cc2c(cc1F)c(=O)c(S(=O)(=O)c1ccc(OC)cc1)cn2CC,inactive: -19.3%
13,CCOc1ccc(CNC(=O)C2CCCN(S(=O)(=O)c3ccc4c(ccn4C)c3)C2)cc1 (stereo unspecified),inactive: 4.53%
14,COc1ccc(-c2nc(CN3CCC(C(=O)NCc4ccccc4)CC3)c(C)o2)cc1OC,inactive: 0.702%
15,Cn1nnc2c(N3CCN(c4ccccc4Cl)CC3)ncnc21,inactive: -1.19%
16,COc1ccc(-c2c3c(=O)n(C)c(=O)n(C)c3c3c(C)nc4ccccc4n23)cc1,inactive: -5.39%
17,CC(C)(C)c1ccc(-c2nc(SCCCOc3ccccc3)n3[nH]c(=O)cc3n2)cc1,inactive: 8.06%
18,CCOC(=O)Cn1c(=O)n(-c2ccccc2OC)c2nc(-c3cccc(F)c3)nc(C(N)=O)c21,inactive: 0%
19,Cc1ccc(-c2nnc(SCc3cccc(C#N)c3)o2)cc1,inactive: -16.1%
20,CCOC(=O)c1ccccc1NC(=O)N(C(C)C)C1CCN(C(C)=O)CC1,inactive: 2.13%
21,CCOC(=O)c1cccnc1SCC(=O)Nc1ccc(C)cc1C,inactive: 1.3%
22,Cc1ccc2c(c1)-c1c(cnc3cc(-c4ccccc4)nn13)CO2,inactive: 0.0574%
23,CN(C)CCNC(=O)c1ccc2c(=O)n3c(nc2c1)CCCCC3,inactive: -6.39%
24,O=C(NCCc1ccccc1)c1nnc(Cc2cccc(F)c2)o1,inactive: 0%
